In article PMC4336329 (PLoS ONE, 2015):
Screen size: about 310,000 compounds; about 14,000 (4.5%) showed an effect of 50% or more. Effects have a minus sign here. This is one part of the list.

molecular target: human ether-à-go-go-related gene (hERG) potassium channel (human, UniProt Q12809); test: primary screen, population patch clamp on CHO cells stably expressing hERG
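Also: peak tail current of the secondary pulse compared with the same well before compound.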

Chain of human ether-à-go-go-related gene (hERG) potassium channel (Q12809 whole entry, looked up): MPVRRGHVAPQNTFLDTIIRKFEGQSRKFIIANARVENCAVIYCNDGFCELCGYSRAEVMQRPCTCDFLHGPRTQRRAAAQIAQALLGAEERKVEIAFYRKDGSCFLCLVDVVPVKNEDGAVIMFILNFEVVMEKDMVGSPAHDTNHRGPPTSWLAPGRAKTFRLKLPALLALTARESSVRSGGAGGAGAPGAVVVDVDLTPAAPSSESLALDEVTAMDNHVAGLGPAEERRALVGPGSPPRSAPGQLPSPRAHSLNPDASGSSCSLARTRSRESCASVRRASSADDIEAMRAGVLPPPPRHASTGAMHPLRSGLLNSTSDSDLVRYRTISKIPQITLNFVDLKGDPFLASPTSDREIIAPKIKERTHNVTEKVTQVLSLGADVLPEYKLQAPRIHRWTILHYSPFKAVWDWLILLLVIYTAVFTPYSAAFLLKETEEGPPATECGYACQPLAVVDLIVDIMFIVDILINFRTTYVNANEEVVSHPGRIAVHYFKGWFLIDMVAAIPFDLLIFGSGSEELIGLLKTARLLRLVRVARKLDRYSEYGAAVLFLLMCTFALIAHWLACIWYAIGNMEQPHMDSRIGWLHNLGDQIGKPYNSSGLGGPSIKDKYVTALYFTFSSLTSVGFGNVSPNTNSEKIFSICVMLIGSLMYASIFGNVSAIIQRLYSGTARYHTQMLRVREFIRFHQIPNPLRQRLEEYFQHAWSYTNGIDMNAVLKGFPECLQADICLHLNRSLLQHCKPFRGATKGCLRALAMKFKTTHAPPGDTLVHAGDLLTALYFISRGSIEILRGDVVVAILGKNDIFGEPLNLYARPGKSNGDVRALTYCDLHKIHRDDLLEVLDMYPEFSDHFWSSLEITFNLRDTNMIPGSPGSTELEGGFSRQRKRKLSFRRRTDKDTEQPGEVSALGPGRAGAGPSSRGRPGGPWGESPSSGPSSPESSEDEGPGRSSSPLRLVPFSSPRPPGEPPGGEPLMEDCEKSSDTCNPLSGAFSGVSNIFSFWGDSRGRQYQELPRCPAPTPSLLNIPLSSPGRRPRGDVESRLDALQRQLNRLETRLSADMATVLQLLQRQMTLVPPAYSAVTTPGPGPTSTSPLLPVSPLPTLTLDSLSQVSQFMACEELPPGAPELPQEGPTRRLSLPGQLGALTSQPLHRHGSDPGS

Structure (SMILES)	hERG current change (%, negative = inhibition) at 10uM [%]
CCCc1cc(=O)[nH]c(Nc2ccc(OC)c(Cl)c2)n1	-2.06
Cc1ccc(C(=O)NCCNC(=O)Cc2ccccc2)cn1	27.4
CCOC(=O)CC(NC(=O)c1cc2cc(Cl)cc(Cl)c2oc1=O)c1cccc([N+](=O)[O-])c1 (stereo not drawn)	-66.8
CN(C(=O)COc1nnc(-c2cccs2)c(-c2cccs2)n1)c1ccccc1	-34.3
CC(O)Cn1c(N2CCCC2)nc2c1c(=O)[nH]c(=O)n2C (stereo not drawn)	17.7
O=C(Cn1cnc2c(nnn2-c2ccc(F)cc2)c1=O)NCC1CCCO1 (stereo not drawn)	3.12
CCOc1ccc(Nc2ccc(C(=O)O)cc2[N+](=O)[O-])cc1	18.7
CCN(CC)S(=O)(=O)c1ccc(Oc2ccccc2OC)cc1	-65.3
O=c1[nH]c(SCc2ccc(F)cc2)nc2c1cnn2-c1ccc(F)cc1	12.3
C=CC[N+]1(C)CC[C@]23c4c5ccc(O)c4O[C@H]2C(=O)CC[C@@]3(O)[C@H]1C5.[I-] (stereo partly drawn)	17.8
CCn1c(=O)c(C(=O)NNC(=O)c2ccccc2F)c(O)c2ccccc21	3.3
Cc1ccc(-c2nc(CN(C)C)cc(CN(C)C)c2O)cc1.Cl	-14.6
c1ccc(-n2ncc3cccnc32)cc1	8.53
CC(C)CNS(=O)(=O)c1ccccc1C(=O)N1CCCCC1	-0.884
O=c1c([N+](=O)[O-])c(NCCN2CCCCCC2)c2ccccc2n1-c1ccccc1	-3.63
CCCC(=O)Nc1nn(C)c2nc3c(C)cccc3cc12	-7.99
CC1(C)CC(=O)C(C2C3=C(CC(C)(C)CC3=O)OC3=C2C(=O)CC(C)(C)C3)=C(O)C1	0.256
COc1cc(SC)ccc1C(=O)NCCOc1ccc(C)c(C)c1	-9.71
O=C(COc1ccc([N+](=O)[O-])cc1)Nc1ccc2c(c1)CCC2	-41.3

Structure (SMILES)	hERG current change (%, negative = inhibition) at 10uM [%]
c1ccc(CCNc2ccc3nncn3n2)cc1	7.69
CC1(C)CC(=O)C2=C(C1)OC(=O)C2(NC(=O)c1cccs1)C(F)(F)F (stereo not drawn)	7.01
CNC(=O)C1CCN(S(=O)(=O)c2c(C)noc2/C=C/c2ccccc2F)CC1	11.4
FC(F)Oc1ccc(C2N=C(c3ccccc3)NO2)cc1 (stereo not drawn)	-25.2
COc1cccc(NC(=O)COc2ccc(S(=O)(=O)NC(C)C)cc2)c1	9.26
COc1ccccc1CNC(=O)c1cc(=O)c2ccccc2o1	0.798
O=C(Cn1c(=O)sc2ccccc21)NCCOc1ccccc1F	4.46
Cc1ccc(-c2n[nH]c(=S)n2/N=C/c2cccn2C)cc1	16
Brc1ccc2c(c1)OCCOCCOCCOCCOCCOCCO2	-70.8
COc1ccc(N(C)S(=O)(=O)c2cccc(C(=O)Nc3nnc(C)s3)c2)cc1	-3.56
CC1CC(C)CN(C(=O)c2nn(C)c3c2CS(=O)(=O)c2ccccc2-3)C1 (stereo not drawn)	-12.7
c1csc(-c2nc3c4ccccc4c4ccccc4c3[nH]2)c1	6.64
CC/C(=N\N=C1\SC(C)C(=O)N1Cc1ccco1)c1ccccc1 (stereo not drawn)	4.18
Cc1cc(C(F)(F)F)n(-c2nc(C(=O)NNS(=O)(=O)c3ccccc3[N+](=O)[O-])cs2)n1	-1.01
Cc1cc(C2=NNC(=NC3CCCCC3)SC2)c(C)n1-c1c(C)n(C)n(-c2ccccc2)c1=O	14
Nc1c(C(=O)NC2CCCC2)c2nc3ccccc3nc2n1/N=C/c1cccnc1	-4.32
O=c1cnc2ccccc2n1Cc1ccccc1C(F)(F)F	18.5
O=C(/C=C/c1ccccc1Cl)NCc1ccco1	-21.8
COc1ccccc1/C=C1\N=C(C(C)(C)C)OC1=O	1.88

Structure (SMILES)	hERG current change (%, negative = inhibition) at 10uM [%]
Cc1nc2sc(C(c3ccccc3)N3CCN(C)CC3)c(O)n2n1 (stereo not drawn)	-6.85
CC(C)(C)c1ccc(C(=O)NNc2cc(N3CCOCC3)nc(N3CCOCC3)n2)cc1	-11.6
CC/C(C)=N/Nc1cccc([N+](=O)[O-])c1	23
Clc1ccc(CSc2nnc(-c3sccc3-n3cccc3)o2)cc1	-3.91
Cc1cccc(C)c1-n1c(SCC(=O)Nc2ccc(C(=O)O)cc2)nnc1-c1cccc(S(=O)(=O)N(C)C)c1	15.1
CC(C)Cc1nnc(NC(=O)CCC(=O)N2CCN(S(=O)(=O)c3ccccc3)CC2)s1	0.00048
O=C(O)C(Cc1ccccc1)N1CCS(=O)(=O)CC1 (stereo not drawn)	6.07
O=C(O)c1ccccc1-n1cnnn1	-7.79
CN(C)c1ccc(C(=S)NC2CCCCC2)cc1	16.3
O=c1[nH]c(=O)n(-c2ccccc2)c(O)c1/C=C/C=Nc1ccccc1	13.9
O=C1c2cccc(OCC(=O)N3CCCc4ccccc43)c2CCN1Cc1ccc(Br)cc1	6.7
CC(C)(C)c1nnc2sc(SCC(=O)c3ccccc3)nn2c1=O	1.34
CCOc1ccc(C(=O)Nc2cccc(C(=O)O)c2)cc1Cl	9.32
CCOc1c2ccc(C(=O)N[C@H](C)C3CCCCC3)cc2nn1CC	-9.54
CC1CCCN(CC(O)CN)C1 (stereo not drawn)	17.3
Cc1nc(-c2coc3cc(C)c(N=O)c(O)c3/c2=N\N)cs1	10.2
CC1=CC(C)C(C(=O)O)C(C(=O)N2CCN(C)CC2)C1 (stereo not drawn)	26.3
NNC(=O)c1cc(-c2ccco2)[nH]n1	10.5
CN1CCN(S(=O)(=O)c2ccc([N+](=O)[O-])cc2)CC1	-14.6
